According to PubChem BioAssay (Tox21):
Inconclusive means that the source gave no clear call. Such entries were picked first, then a sample of the others. Where a call stands in place of a potency, no number is given. Where the call is inconclusive, the potency comes from a doubtful curve fit. Active and inactive are the calls of the source. Calls follow the shape of the dose curve; as a rule, active = well fitted activation curve with a large enough effect in the signal ratio in the repeat runs (not every such curve was filed as active); inconclusive = weak or mixed curves; inactive = flat fitted curve, though single readings scatter; the % refers to the signal ratio. Bridge positions count the residues as written; N and C are the ends. Square brackets hold non-standard residues; d marks the D form. Peptide text beside a SMILES is read from it. hArg = N=C(N)NCCCC[C@H](N)C(=O)O; Mpa = O=C(O)CCS

Assay: qHTS assay to identify small molecule agonists of H2AX (AID 1224845)
Conditions: CHO-K1 phospho-H2AX Ser139 HTRF, 3 h; activation (H2AX phosphorylation): at 154 µM (top of the series) unless noted
In short: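 Wild-type CHO-K1 cells, plated overnight, exposed 3hr at 37C to 15 concentrations (0.76% DMSO final). Lysed, then HTRF anti-pH2AX (S139) cryptate and anti-H2AX-d2 antibodies, 24 hr room temperature; 665/620 nm emission read.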
Potency is read from the fitted curve at half-maximal effect; tags tell the direction and shape of the fitted curve or compound fluorescence and quenching.

Structure (SMILES) | Potency | activation (H2AX phosphorylation)
Cc1ccccc1C(=O)O | inactive | –
CCNCCO | inconclusive: 142 µM [rising, single point] | –
O=C(O)c1ccc2cc(C(=O)O)ccc2c1 | inactive | –
CC(=O)OC[C@H]1O[C@@H](n2ncc(=O)[nH]c2=O)[C@H](OC(C)=O)[C@@H]1OC(C)=O | inconclusive: 0.695 µM [activator, full curve] | –
Cn1c(=O)cc(Oc2ccc(F)cc2F)c2cnc(NCC(C)(C)O)nc21 | inconclusive: 127 µM [rising, partial curve, poor fit] | –
CCN1CCOCC1 | inactive | –
COS(=O)(=O)C(F)(F)F | – | inconclusive: 11.9%
CCN(CC)C(=O)N(CC)CC | inactive | –
COC(=O)c1ccccc1OC | inactive | –
Clc1ccc(Cl)c(Cl)c1Cl | inconclusive: 31.8 µM [rising, partial curve, poor fit] | –
O=C(CS)Nc1ccccc1 | inconclusive: 12.4 µM [rising, full curve] | –
NCCCC[C@H](N[C@@H](CCc1ccccc1)C(=O)O)C(=O)N1CCC[C@H]1C(=O)O | inactive | –
Nc1ccc(NC(=O)c2ccc(N)cc2)cc1 | inconclusive: 63.7 µM [falling, partial curve] | –
CC(=O)N(CC(O)CO)c1c(I)c(C(=O)NCC(O)CO)c(I)c(C(=O)NCC(O)CO)c1I (stereo not given) | inactive | –
Nc1nc(Cl)nc2c1ncn2[C@@H]1O[C@H](CO)[C@@H](O)[C@@H]1F | active: 1.56 µM | –
NC(=O)C(c1ccccc1)(c1ccccc1)[C@@H]1CCN(CCc2ccc3c(c2)CCO3)C1 | inactive | –
COCCc1ccc(OCC2CO2)cc1 (stereo not given) | inactive | –
CN1Cc2cc(C(=O)N3CCC(C4CCNCC4)CC3)ccc2N[C@@H](CC(=O)O)C1=O | inactive | –
COc1ccc(N)c([N+](=O)[O-])c1 | inconclusive: 127 µM [falling, single point] | –
CCCCCCCCCCCCCCCCBr | – | inactive: -0.41% [at 31.6 µM]

Structure (SMILES) | Potency | activation (H2AX phosphorylation)
CC(CO)Oc1ccccc1 (stereo not given) | inactive | –
C=C(C)C(=O)OCCCCCCCCCC | – | inconclusive: 8.03%
CC(CO)(CO)[N+](=O)[O-] | inactive | –
O=C(O)c1cc(Br)c(O)c(Br)c1 | inconclusive: 80 µM [falling, partial curve, poor fit] | –
CC1=Nc2ccccc2C1(C)C | inconclusive: 113 µM [activator, single point] | –
CC(N=C(NC#N)Nc1ccncc1)C(C)(C)C (stereo not given) | inactive | –
Cc1cc2c(cc1CC(=O)c1sccc1S(=O)(=O)Nc1onc(C)c1Cl)OCO2 | inactive | –
CC1=CC[C@H]2C[C@@H]1C2(C)C | inactive | –
NC(=O)[C@@H]1CSSCCC(=O)N[C@@H](CCCCN=C(N)N)C(=O)NCC(=O)N[C@@H](CC(=O)O)C(=O)N[C@@H](Cc2c[nH]c3ccccc23)C(=O)N2CCC[C@H]2C(=O)N1 ([Mpa][hArg]GDWPC-NH2; disulfide 1-7) | inconclusive: 15.6 µM [rising, partial curve, poor fit] | –
c1ccc(CNc2ncnc3c2ncn3C2CCCCO2)cc1 (stereo not given) | – | inconclusive: -8.45%
c1ccc2[nH]cnc2c1 | inactive | –
Cc1cccc2cccnc12 | inactive | –
CCOC(=O)N1CCC(Nc2ccc(Cl)cc2N)CC1 | inactive | –
CC(C)CCCC(C)(C)O | inactive | –
CN(C)CCCOC1(Cc2ccccc2)CCCCCC1 | inactive | –
CC(C)=CCOc1ccc(/C=C/C(=O)c2ccc(OCC=C(C)C)cc2OCC(=O)O)cc1 | inactive | –
CC(C)CC(O)CC(C)C | inactive | –
COc1nc(C)nc(Cl)c1NC1=NCCN1 | inactive | –
COc1cc2c3cc1Oc1cc(ccc1O)C[C@@H]1c4c(cc(OC)c(O)c4Oc4ccc(cc4)C[C@@H]3N(C)CC2)CC[N+]1(C)C | inactive | –
Nc1nc(Cl)nc2c1ncn2[C@H]1C[C@H](O)[C@@H](CO)O1 | active: 14.1 µM | –
